Out of some 50,000 compounds screened, about 800 (1.6%) showed an effect of 50% or more. Some of the results follow.
biological target: Bcl-2-like protein 10 (Homo sapiens) (UniProt Q9HD36); experiment: TR3 peptide-Bcl-B binding displacers, biochemical primary FP assay, phenotype converters (AID 1240); conditions: GST-Bcl-B / FITC-TR3 peptide fluorescence polarization; stronger effect = higher value; compound at 3.75 mg/L;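 further: 0% = Bcl-B with tracer peptide and DMSO and 100% = tracer peptide lacking Bcl-B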
Chain of UniProt Q9HD36 (Q9HD36 whole entry, looked up): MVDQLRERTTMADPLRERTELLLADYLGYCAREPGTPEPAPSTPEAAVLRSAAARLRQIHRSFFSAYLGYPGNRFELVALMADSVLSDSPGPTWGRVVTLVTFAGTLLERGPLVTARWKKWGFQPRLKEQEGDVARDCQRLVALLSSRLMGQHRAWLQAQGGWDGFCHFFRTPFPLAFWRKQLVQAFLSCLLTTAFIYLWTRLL

| SMILES | displacement [%] |
| --- | --- |
| COc1cc(C(O)c2nc3ccccc3n2C(C)C)cc(OC)c1OC (configuration not stated) | -8.5 |
| O=C(CCCN1C(=O)c2ccccc2C1=O)NCc1ccco1 | -15.7 |
| CN(C)c1ccc(/C=C2\SC(N3CCN(C(c4ccccc4)c4ccccc4)CC3)=NC2=O)cc1 | -15.6 |
| COc1ccccc1N1C(=O)C2ON(c3ccccc3C)C(c3cccc(Br)c3)C2C1=O (configuration not stated) | 6.6 |
| Cc1c(OCC(=O)C(C)(C)C)ccc2c1oc(=O)c1ccccc12 | 10.3 |
| COc1ccc(C2Nc3ccccc3C(=O)N2Cc2ccco2)cc1Cn1nnc2ccccc21 (configuration not stated) | -6.3 |
| COc1ccc(/C=N/Nc2nc(N3CCCC3)nc(N3CCCC3)n2)cc1 | 5.7 |
| CCOc1cc(/C=C2/C(=O)ON=C2c2ccc(Cl)cc2)ccc1OC | 118 |
| Clc1cccc(OCCCn2ccnc2)c1 | -10.7 |
| CC(=O)Nc1ccc(C(=O)NNC(=O)Cc2ccc(Cl)cc2)cc1 | -4.6 |
| COc1ccc(-c2cc(=O)oc3cc(OC(C)=O)ccc23)cc1 | -5.1 |
| O=c1c2ccccc2nc(/C=C/c2ccco2)n1Cc1ccccc1 | -4.1 |
| C=CCOc1cccc(/C=C/C(=O)c2ccc(Cl)cc2)c1 | -12.6 |
| COc1ccccc1CN/C(C)=C(/C#N)C(=O)NCc1ccccc1 | -11.9 |
| Cc1cc(Br)cc(/C=N/NC(=O)c2ccc3c(c2)OCO3)c1O | 12.6 |
| COc1cccc(-n2c(/C=C/c3c(C)[nH]c4ccccc34)nc3ccccc3c2=O)c1 | -46.6 |
| COc1cccc(N2C(=O)CC(SCC(=O)Nc3ccc(Cl)cc3)C2=O)c1 (configuration not stated) | 11.8 |
| COc1cc(NS(=O)(=O)c2ccccc2)c2ncccc2c1 | 1.1 |
| CCOc1ccccc1N(CC(=O)Nc1ccc(OC)c(OC)c1)S(=O)(=O)c1ccccc1 | 12.6 |
| COc1ccc(C2SC(C)C(=O)N2c2ccc(C)cc2)cc1 (configuration not stated) | 5.1 |
| COc1ccc(/C=C(/NC(=O)c2ccco2)C(=O)Nc2ccc3ccccc3c2)cc1 | 3.9 |
| Cc1ccccc1-c1nc(Cc2ccccc2)no1 | -14.7 |

| SMILES | displacement [%] |
| --- | --- |
| COc1cc([N+](=O)[O-])cc(/C=C2/C(=O)NC(=O)N(c3ccc(C(C)C)cc3)C2=O)c1O | -10.9 |
| CCCCOc1ccc(S(=O)(=O)NCc2cccnc2)cc1 | 2.9 |
| CCOc1ccc(C(=O)Nc2ccc(OC)cc2)cc1[N+](=O)[O-] | 13.6 |
| Cc1ccc(Cl)cc1NC(=O)CSCC(=O)Nc1ccccc1 | 5.8 |
| CCOC(=O)c1c(NC(=O)Cc2ccccc2)sc(C(=O)Nc2cc(C(F)(F)F)ccc2Cl)c1C | 8.1 |
| Cc1ccc(Cl)cc1NS(=O)(=O)c1ccc(Cl)cc1 | -10.9 |
| C=C(C)c1cccc(C(C)(C)NC(=O)Nc2ccccc2F)c1 | -1.2 |
| COc1ccc(C(=O)Nc2ccc(-c3nc4ccccc4s3)cc2)cc1Br | -3.3 |
| COc1ccc(NC(=O)COc2c(C)cc(C)cc2C)c(OC)c1 | 12.7 |
| COC(=O)C1=C(C)N(C)C(C)=C(C(=O)OC)C1c1cc(OC)c(OC)c(OC)c1 | 11.2 |
| O=S(=O)(NCC(c1ccccc1)N1CCOCC1)c1ccccc1 (configuration not stated) | -9.9 |
| COc1cccc(N2C(=O)C(=O)/C(=C(\O)c3ccccc3)C2c2cccc([N+](=O)[O-])c2)c1 (configuration not stated) | 8.2 |
| COc1ccc(NC(=O)C2Cc3ccccc3CN2C(=O)OCc2ccccc2)cc1 (configuration not stated) | -3.3 |
| COc1ccc(N(CC(=O)Nc2ccccc2Cl)S(=O)(=O)c2ccccc2)cc1 | 4.9 |
| CCOC(=O)C(CC(C)C)NC(=O)CCN1C(=O)c2ccccc2C1=O (configuration not stated) | 9.4 |
| O=c1[nH]c(SCc2ccccc2)nc2sc3c(c12)CCc1ccccc1-3 | -10.4 |
| Cc1ccc2oc(-c3ccc(NC(=O)c4ccc(C(C)(C)C)cc4)cc3O)nc2c1 | 27.1 |
| COc1ccc(N(CC(=O)O)S(C)(=O)=O)c(OC)c1 | 7.3 |
| COc1ccc(NC(=O)c2ccc(F)c3ccccc23)c(OC)c1 | 14.4 |
| C/C(=N/N=C(\C)C1C(=O)c2ccccc2C1=O)c1cccs1 | 5.3 |
| COc1ccc(CNS(=O)(=O)c2ccc(C)cc2)cc1 | 18.2 |
| COc1cc(C(=O)Oc2ccc3c(C)cc(=O)oc3c2C(C)=O)cc(OC)c1OC | 8.7 |

| SMILES | displacement [%] |
| --- | --- |
| CCC(=O)N1c2ccccc2NC2=C(C(=O)CC(C)(C)C2)C1c1ccc(-c2cccc([N+](=O)[O-])c2)o1 (configuration not stated) | -4.5 |
| O=C(NOC(=O)c1ccc(Br)cc1)c1ccc(Cl)cc1 | -5 |
| Cc1nnc(SCc2c(Cl)cccc2Cl)s1 | 6.3 |
| CC(NC(=O)C12CC3CC(CC(C3)C1)C2)C1CC2CCC1C2 (configuration not stated) | -8.2 |
| COc1cc(/C=N/n2c(C)nnc2C)ccc1O | 11.9 |
| Cc1ccc(-c2cc(NC(=O)c3ccccc3[N+](=O)[O-])n[nH]2)cc1 | 8.8 |
| C=CCc1c(C)nc2cc(-c3ccc(F)cc3)[nH]n2c1=O | -5.2 |
| CC1CC(N(C(=O)c2ccco2)c2ccccc2)c2ccccc2N1C(=O)c1ccco1 (configuration not stated) | -13.7 |
| CC(=O)c1c(-c2ccccc2)c2cc(C)ccc2[nH]c1=O | 3.4 |
| COC(=O)C(NC(=O)COc1ccc(Cl)cc1Cl)C(C)C (configuration not stated) | -13.5 |
| Cc1cc2ncn(CC(O)COc3cccc(Cl)c3)c2cc1C (configuration not stated) | -10.9 |
| Cc1cccc(N2CCN(C(=S)c3ccc(-c4ccccc4[N+](=O)[O-])o3)CC2)c1 | 17.4 |
| COc1ccc(OC)c(/C=N/NC(=O)c2ccc[n+](CC(=O)c3ccccc3)c2)c1 | 39.7 |
| C=CCNC(=O)/C(=C/c1ccc(C(C)C)cc1)NC(=O)c1ccccc1 | 8.9 |
| COc1ccc(N(C)S(=O)(=O)c2ccc(Cl)cc2)cc1 | 1 |
| CSc1ccc(S(=O)(=O)N(CC(=O)Nc2cccc(Cl)c2Cl)c2ccc(C)cc2)cc1 | 4.2 |
| O/N=C1/c2ccccc2/C(=N/O)C1c1ccccc1 | -4.1 |
| Cc1ccc(Cl)cc1NC(=O)CN(c1ccccc1)S(=O)(=O)c1ccccc1[N+](=O)[O-] | 5.9 |
| C/C(=N\N=C1\NC(=O)C(CC(=O)Nc2ccccc2[N+](=O)[O-])S1)c1ccc(Br)cc1 (configuration not stated) | -3.3 |
| COc1cc(CNc2nc3ccccc3n2CCN2CCCCC2)cc(OC)c1OC | -14.2 |
| O=c1cnn(Cc2ccccc2)c(=O)n1Cc1ccccc1 | -4.3 |
| CC(Sc1nc2ccccc2n1C)C(=O)NC(c1ccccc1)c1ccccc1 (configuration not stated) | -5.3 |

| SMILES | displacement [%] |
| --- | --- |
| O=C1C2ON(c3ccc(Cl)cc3)C(c3cccs3)C2C(=O)N1c1cccc(C(F)(F)F)c1 (configuration not stated) | -18.1 |
| COc1ccc(/C=N/n2cnnc2)cc1Br | 15.5 |
| O=c1oc(-c2ccco2)nc2cc(Cl)ccc12 | 56 |
| O=C(NCCO)C(=O)Nc1ccc(F)cc1 | 12.1 |
| COc1ccc(C)cc1NC(=O)Nc1ccccc1 | 1.3 |
| COc1cc(OC)cc(C(=O)N2CCN(S(=O)(=O)c3ccc(Cl)cc3)CC2)c1 | 1.7 |
| CC(C)c1ncc(C(O)c2ccc(N(C)C)cc2)n1C (configuration not stated) | 9.4 |
| Cc1onc(-c2ccccc2)c1C(=O)Nc1sc2c(c1C(N)=O)CCCC2 | -9.6 |
| COc1cc(-c2nc3ccccn3c2/N=C/c2cccc([N+](=O)[O-])c2O)ccc1O | 1.8 |
| NS(=O)(=O)c1ccc(N=C2c3ccccc3C(=O)C2c2ccccc2)cc1 (configuration not stated) | 3.9 |
| COC(=O)c1ccc(Oc2nc(N(C)C)nc(N(C)C)n2)cc1 | -3.3 |
| COc1c(Cl)cc(Cl)cc1/C=C/c1cc(C(F)(F)F)[nH]c(=O)n1 | -5.2 |
| O=C(Nc1ccc(Cl)c(Cl)c1)Nc1nnc(-c2ccccc2Cl)s1 | 9.9 |
| CCOc1ccc(NC(=O)CN(c2ccc(C)cc2)S(=O)(=O)c2ccc(OC)c(OC)c2)cc1 | 8.7 |
| CCOC(=O)c1c(-c2ccccc2)csc1NC(=O)c1cc2ccccc2oc1=O | -7.7 |
| O=C1CC(c2ccccc2F)c2cc(Br)c3ccccc3c2N1 (configuration not stated) | -8.7 |
| CC1=C(C(=O)OCCc2ccccc2)C(c2ccccc2[N+](=O)[O-])C2=C(CCCC2=O)N1 (configuration not stated) | -11.6 |
| COc1ccc(N(CC(=O)N2CCOCC2)S(=O)(=O)c2ccc(C)cc2)c(OC)c1 | 4.5 |
| Cc1sc(NC(=O)CCN2C(=O)c3ccccc3C2=O)nc1-c1ccccc1 | -11.5 |
| O=C1NN(c2ccccc2)C(=O)/C1=C/c1cccc(Br)c1 | 21.7 |
| CC1(c2ccccc2)CC(C)(C)N(C=O)c2ccccc21 (configuration not stated) | -8.9 |
| Cc1cccc(-n2c(O)c(C=Nc3ccccc3N)c(=O)[nH]c2=O)c1 | -24.6 |

| SMILES | displacement [%] |
| --- | --- |
| O=C(Nc1ccc(Cl)c(C(F)(F)F)c1)c1ccc(Br)cc1 | 4.1 |
| CC(=O)C1=C(O)C(=O)N(CCN2CCNCC2)C1c1ccccc1F (configuration not stated) | -21.4 |
| Cc1ccc(/C(N)=N/OC(=O)c2ccc(Cl)cc2Cl)cc1 | 1.7 |
| CCNC(=O)C(=O)Nc1ccccc1OC | 10.1 |
| Cc1cc(Nc2ccc3c(c2)n(C)c(=O)n3C)n2c(nc3ccccc32)c1C#N | 22.5 |
| CCCCNc1ncnc2sc3c(c12)CCCC3 | 18.4 |
| Cc1ccc(C(=O)NN2C(=O)c3ccc(S(=O)(=O)c4ccc(C(=O)O)cc4)cc3C2=O)cc1 | 1.9 |
| Cc1ccc(C)c(N2C(=O)C3C4C=CC(C4=C4CCCCC4)C3C2=O)c1 (configuration not stated) | 2.8 |
| COc1ccc(C2CC(c3ccccc3)=NN2C(C)=O)cc1 (configuration not stated) | 13.6 |
| COc1c(Cl)cc(C(=O)Nc2ccc([N+](=O)[O-])cc2C)cc1Cl | 0.3 |
| Cc1c(C(=O)Nc2cccc(C(F)(F)F)c2)cccc1[N+](=O)[O-] | -8.4 |
| O=[N+]([O-])c1ccc(NCCNCCO)c(Cl)c1 | 13.5 |
| COc1ccc(/C=C2/N=C(c3ccc(C)cc3)OC2=O)cc1Br | 127 |
| CCN(CC)CCSc1nc(O)c(C2CCCCC2)c(=O)[nH]1 | -6.4 |
| Cc1cccc(-c2cc(NC(=O)c3ccc(Cl)cc3Cl)n[nH]2)c1 | 14.1 |
| CCOC(=O)C1CCN(C(=O)C2c3ccccc3Oc3ccccc32)CC1 | 11.4 |
| O=C(O)C(Cc1ccccc1)n1c(O)c(/C=C2\C=Nc3ccccc32)sc1=S (configuration not stated) | -2.3 |
| Cc1cc2nc(-c3ccc(NC(=O)c4ccccc4)cc3O)oc2cc1C | 6.3 |
| CCOc1cc(C2C3=C(CC(C)(C)CC3=O)NC3=C2C(=O)CC(C)(C)C3)cc(Br)c1OC | 7.7 |

Reference: PubChem BioAssay AID1240 (Sanford-Burnham Center for Chemical Genomics, 2008)
